From the supplement of paper PMC8728848
Some of the results follow.

What was measured:
Assay in all cases: glycan array binding signal (z-score within array); higher = stronger binding
Conditions in all cases: glycan notation: IUPAC condensed, linker removed
[1] = biological target: Gal(b1-4)GlcNAc(b1-6)Gal(b1-4)GlcNAc
Summary of the method: (§1)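 The Consortium for Functional Glycomics database supplied 3228 glycan arrays, of which those lacking an available protein sequence were dropped. The binding signal, a within-array Z-score, was averaged across arrays of the same protein sequence and across linkers. Negative scores can be read as non-binding.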

[2] = biological target: Gal(b1-4)GlcNAc(b1-6)GalNAc
Summary of the method: as §1

[3] = biological target: Gal(b1-4)GlcNAc(b1-6)[Gal(b1-3)]GalNAc
Summary of the method: as §1

[4] = biological target: Gal(b1-4)GlcNAc(b1-6)[Gal(b1-4)GlcNAc(b1-3)]GalNAc
Summary of the method: as §1

Gal(b1-4)GlcNAc6P = biological target: Gal(b1-4)GlcNAc6P
Summary of the method: as §1

Gal(b1-6)Gal = biological target: Gal(b1-6)Gal
Summary of the method: as §1

Gal3S(b1-3)GalNAc = biological target: Gal3S(b1-3)GalNAc
Summary of the method: as §1

Gal3S(b1-3)GlcNAc = biological target: Gal3S(b1-3)GlcNAc
Summary of the method: as §1

[5] = biological target: Gal3S(b1-3)[Fuc(a1-4)]GlcNAc
Summary of the method: as §1

Gal3S(b1-4)Glc = biological target: Gal3S(b1-4)Glc
Summary of the method: as §1

Gal3S(b1-4)Glc6S = biological target: Gal3S(b1-4)Glc6S
Summary of the method: as §1

Gal3S(b1-4)GlcNAc = biological target: Gal3S(b1-4)GlcNAc
Summary of the method: as §1

[6] = biological target: Gal3S(b1-4)[Fuc(a1-3)]Glc6S
Summary of the method: as §1

[7] = biological target: Gal3S(b1-4)[Fuc(a1-3)]GlcNAc
Summary of the method: as §1

[8] = biological target: Gal3S(b1-4)[Fuc(a1-3)]GlcNAc6S
Summary of the method: as §1

Gal3S4S(b1-4)GlcNAc = biological target: Gal3S4S(b1-4)GlcNAc
Summary of the method: as §1

Gal3S6S(b1-4)GlcNAc = biological target: Gal3S6S(b1-4)GlcNAc
Summary of the method: as §1

Gal3S6S(b1-4)GlcNAc6S = biological target: Gal3S6S(b1-4)GlcNAc6S
Summary of the method: as §1

Gal4S(b1-4)GlcNAc = biological target: Gal4S(b1-4)GlcNAc
Summary of the method: as §1

Gal4S6S(b1-4)GlcNAc = biological target: Gal4S6S(b1-4)GlcNAc
Summary of the method: as §1

Gal6P(b1-4)GlcNAc = biological target: Gal6P(b1-4)GlcNAc
Summary of the method: as §1

Gal6S(b1-3)GlcNAc = biological target: Gal6S(b1-3)GlcNAc
Summary of the method: as §1

Gal6S(b1-3)GlcNAc6S = biological target: Gal6S(b1-3)GlcNAc6S
Summary of the method: as §1

B1: BC2LB (Burholderia cenocepacia), B4EH85_BURCJ (protein)
chain: MGSSHHHHHHSSGENLYFQGHMSQPFTHDDLYALLQLAGNDATAVQANGDQAVLDRMRQFMTAQLVEKLPQYDVFVDIATIPYSFDVGSWQNKVKTDAAGEVVACTVTWAGAPGVLPGAAAKFGVGAVVNYFSKATPH
In the case of B1, the “glycan array binding signal (z-score)” value [1] is reported as -0.153, the “glycan array binding signal (z-score)” value [2] is reported as -0.119 and the “glycan array binding signal (z-score)” value [3] is reported as 0.261. The “glycan array binding signal (z-score)” value [4] was -0.202, the “glycan array binding signal (z-score)” value (Gal(b1-4)GlcNAc6P) was -0.292 and the “glycan array binding signal (z-score)” value (Gal(b1-6)Gal) was -0.317. For the same binder, the “glycan array binding signal (z-score)” value (Gal3S(b1-3)GalNAc) was -0.244, the “glycan array binding signal (z-score)” value (Gal3S(b1-3)GlcNAc) was -0.064 and the “glycan array binding signal (z-score)” value [5] was 0.995. The “glycan array binding signal (z-score)” value (Gal3S(b1-4)Glc) was 1.52, the “glycan array binding signal (z-score)” value (Gal3S(b1-4)Glc6S) was 0.282 and the “glycan array binding signal (z-score)” value (Gal3S(b1-4)GlcNAc) was 0.173. For the same binder, the “glycan array binding signal (z-score)” value [6] was -0.086, the “glycan array binding signal (z-score)” value [7] was -0.25 and the “glycan array binding signal (z-score)” value [8] was 0.149. The “glycan array binding signal (z-score)” value (Gal3S4S(b1-4)GlcNAc) was -0.244, the “glycan array binding signal (z-score)” value (Gal3S6S(b1-4)GlcNAc) was -0.145 and the “glycan array binding signal (z-score)” value (Gal3S6S(b1-4)GlcNAc6S) was -0.253. The “glycan array binding signal (z-score)” value (Gal4S(b1-4)GlcNAc) was -0.359, the “glycan array binding signal (z-score)” value (Gal4S6S(b1-4)GlcNAc) was -0.243 and the “glycan array binding signal (z-score)” value (Gal6P(b1-4)GlcNAc) was -0.153. The “glycan array binding signal (z-score)” value (Gal6S(b1-3)GlcNAc) was -0.37 and the “glycan array binding signal (z-score)” value (Gal6S(b1-3)GlcNAc6S) was -0.312.
